Test results from paper PMC3950691.
Results are given in words; binding and its absence hold for the method and conditions named. For part of these data: Binding seen in cells or lysates may run through a third protein. Some binding calls cover weakened binding; strength is not graded here. For part of these data: Sequences can lack the tags named with a protein.

Sequences of proteins named here, by UniProt entry; tags and fusion partners are left off.
UniProt P20448: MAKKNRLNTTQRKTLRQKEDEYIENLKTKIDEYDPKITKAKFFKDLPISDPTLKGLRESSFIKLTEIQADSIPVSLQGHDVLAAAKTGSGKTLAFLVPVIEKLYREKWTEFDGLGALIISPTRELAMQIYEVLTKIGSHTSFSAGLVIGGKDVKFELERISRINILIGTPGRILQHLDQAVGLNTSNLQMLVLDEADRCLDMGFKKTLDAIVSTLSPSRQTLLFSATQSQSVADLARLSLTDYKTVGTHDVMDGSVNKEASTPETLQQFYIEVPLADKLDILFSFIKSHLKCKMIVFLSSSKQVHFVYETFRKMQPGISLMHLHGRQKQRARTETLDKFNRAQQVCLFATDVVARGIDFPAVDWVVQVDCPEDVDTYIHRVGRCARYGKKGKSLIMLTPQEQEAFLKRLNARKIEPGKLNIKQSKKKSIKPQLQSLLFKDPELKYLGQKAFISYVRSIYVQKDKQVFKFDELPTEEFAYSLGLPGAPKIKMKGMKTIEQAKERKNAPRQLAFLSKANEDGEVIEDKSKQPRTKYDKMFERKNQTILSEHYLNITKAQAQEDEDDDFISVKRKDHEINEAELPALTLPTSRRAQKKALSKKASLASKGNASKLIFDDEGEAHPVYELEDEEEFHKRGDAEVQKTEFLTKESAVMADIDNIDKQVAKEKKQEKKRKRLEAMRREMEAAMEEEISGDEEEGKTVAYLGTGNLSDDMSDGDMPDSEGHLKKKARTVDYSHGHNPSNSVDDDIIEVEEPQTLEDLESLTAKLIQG

Key:
[1] = biological target: T1, myc-tagged Enp2 (9xmyc, natural promoter, double-tagged strain YSS7) (S. cerevisiae) (UniProt P48234); experiment: co-IP; as the IPs from whole cell extracts, but the extract was pre-incubated with 30 µg RNase A for 10 min at 37°C
T1 sequence: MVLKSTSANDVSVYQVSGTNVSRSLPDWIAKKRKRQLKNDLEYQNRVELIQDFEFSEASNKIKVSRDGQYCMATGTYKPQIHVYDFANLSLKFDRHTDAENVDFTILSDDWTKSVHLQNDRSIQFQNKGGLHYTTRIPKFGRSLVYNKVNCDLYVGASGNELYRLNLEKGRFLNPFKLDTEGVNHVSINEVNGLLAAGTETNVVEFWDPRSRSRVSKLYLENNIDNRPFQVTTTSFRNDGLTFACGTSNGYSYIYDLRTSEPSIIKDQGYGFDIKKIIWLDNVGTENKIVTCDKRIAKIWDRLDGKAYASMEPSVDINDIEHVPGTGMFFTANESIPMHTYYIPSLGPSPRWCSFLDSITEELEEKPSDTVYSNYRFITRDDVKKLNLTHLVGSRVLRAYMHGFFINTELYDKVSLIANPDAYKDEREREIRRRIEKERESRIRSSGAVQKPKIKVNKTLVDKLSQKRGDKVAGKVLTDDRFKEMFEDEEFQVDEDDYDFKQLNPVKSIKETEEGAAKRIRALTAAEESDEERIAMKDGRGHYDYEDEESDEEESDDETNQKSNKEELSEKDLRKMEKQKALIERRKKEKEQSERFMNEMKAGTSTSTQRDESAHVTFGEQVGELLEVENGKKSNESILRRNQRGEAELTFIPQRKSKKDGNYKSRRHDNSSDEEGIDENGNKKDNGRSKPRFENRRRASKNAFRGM

[2] = biological target: T1, myc-tagged Enp2 (9xmyc, natural promoter, double-tagged strain YSS7) (S. cerevisiae); experiment: co-IP; IPs on pooled sucrose gradient fractions 3–5 (the '50S' peak) of extracts of undepleted cells; anti-Dbp4, anti-myc, anti-HA; western blot
[3] = biological target: T2, Mpp10 (endogenous) (S. cerevisiae (endogenous in the yeast strain)) (UniProt P47083); experiment: co-IP; whole cell extracts of the double-tagged strain in TMN100 buffer (25 mM Tris-HCl pH 7.5, 100 mM NaCl, 10 mM MgCl2, 0.1% NP-40); protein-A agarose beads with anti-Dbp4, anti-Mpp10, anti-HA or anti-myc antibodies, 4°C, 1 h; western blot; also extracts of cells depleted of Bfr2 for 8 h in YPD (Figure 3D)
T2 sequence: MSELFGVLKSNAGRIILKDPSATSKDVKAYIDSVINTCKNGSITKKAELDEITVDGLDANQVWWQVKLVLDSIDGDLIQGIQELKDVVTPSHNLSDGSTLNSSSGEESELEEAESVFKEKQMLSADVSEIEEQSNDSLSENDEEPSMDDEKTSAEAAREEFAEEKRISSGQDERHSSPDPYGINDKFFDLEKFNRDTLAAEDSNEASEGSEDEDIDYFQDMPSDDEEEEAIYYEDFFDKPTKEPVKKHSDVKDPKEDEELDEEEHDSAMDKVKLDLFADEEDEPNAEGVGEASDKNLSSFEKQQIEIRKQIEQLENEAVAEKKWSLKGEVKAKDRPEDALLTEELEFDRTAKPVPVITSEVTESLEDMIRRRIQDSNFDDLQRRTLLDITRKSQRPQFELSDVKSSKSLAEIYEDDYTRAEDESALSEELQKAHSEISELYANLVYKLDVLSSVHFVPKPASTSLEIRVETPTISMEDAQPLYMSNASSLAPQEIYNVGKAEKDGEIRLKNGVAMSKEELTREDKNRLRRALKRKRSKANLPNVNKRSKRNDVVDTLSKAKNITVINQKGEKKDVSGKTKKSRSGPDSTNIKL

[4] = biological target: T1, myc-tagged Enp2 (9xmyc, natural promoter, double-tagged strain YSS7) (S. cerevisiae); experiment: as above
[5] = biological target: T3, HA-tagged Bfr2 (3xHA, GAL1 promoter, double-tagged strain YSS7) (S. cerevisiae) (UniProt Q06631); experiment: as above
T3 sequence: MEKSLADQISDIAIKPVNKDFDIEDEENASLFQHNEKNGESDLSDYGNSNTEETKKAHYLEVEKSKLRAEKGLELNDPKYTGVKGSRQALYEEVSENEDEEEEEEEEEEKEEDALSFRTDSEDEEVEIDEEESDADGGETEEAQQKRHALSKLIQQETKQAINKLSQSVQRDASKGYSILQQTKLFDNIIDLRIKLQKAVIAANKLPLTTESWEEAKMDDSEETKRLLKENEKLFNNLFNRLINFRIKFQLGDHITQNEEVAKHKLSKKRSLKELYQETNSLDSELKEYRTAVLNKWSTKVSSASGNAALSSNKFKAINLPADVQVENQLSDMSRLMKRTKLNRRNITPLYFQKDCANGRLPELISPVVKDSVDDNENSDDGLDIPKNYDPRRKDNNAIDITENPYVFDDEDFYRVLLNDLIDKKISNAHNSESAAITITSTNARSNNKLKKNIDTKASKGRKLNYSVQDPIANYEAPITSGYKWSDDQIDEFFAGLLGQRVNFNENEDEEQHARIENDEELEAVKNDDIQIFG

[6] = biological target: T4, Enp2 (two-hybrid fusion, full length) (S. cerevisiae) (UniProt P48234); experiment: two-hybrid; directed assay in strain AH109; growth on SD–Trp–Leu–His with 2 mM 3-AT, 30°C (Figure 2, middle panel)
T4 sequence: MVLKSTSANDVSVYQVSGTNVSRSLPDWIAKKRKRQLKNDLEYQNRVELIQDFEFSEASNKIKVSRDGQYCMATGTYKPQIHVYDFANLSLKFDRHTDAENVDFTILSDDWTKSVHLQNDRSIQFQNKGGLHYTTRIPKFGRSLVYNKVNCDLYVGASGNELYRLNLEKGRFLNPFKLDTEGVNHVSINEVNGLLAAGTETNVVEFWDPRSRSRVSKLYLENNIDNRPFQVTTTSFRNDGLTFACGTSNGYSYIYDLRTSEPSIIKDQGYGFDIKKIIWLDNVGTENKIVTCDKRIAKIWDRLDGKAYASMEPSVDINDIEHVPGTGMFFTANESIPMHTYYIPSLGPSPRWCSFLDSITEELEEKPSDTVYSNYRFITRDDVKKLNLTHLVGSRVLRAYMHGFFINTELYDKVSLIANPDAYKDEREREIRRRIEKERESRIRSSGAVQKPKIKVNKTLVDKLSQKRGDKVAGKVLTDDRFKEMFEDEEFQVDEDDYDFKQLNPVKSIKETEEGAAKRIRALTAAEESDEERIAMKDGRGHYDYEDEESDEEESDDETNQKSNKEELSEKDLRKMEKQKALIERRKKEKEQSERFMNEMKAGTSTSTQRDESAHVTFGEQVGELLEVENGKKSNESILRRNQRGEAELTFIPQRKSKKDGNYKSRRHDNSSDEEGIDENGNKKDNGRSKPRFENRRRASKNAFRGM

[7] = biological target: T4, Enp2 (two-hybrid fusion, full length) (S. cerevisiae); experiment: two-hybrid; directed assay in strain AH109; growth on SD–Trp–Leu–His with 20 mM 3-AT, 30°C (Figure 2, lower panel)
[8] = biological target: Dbp4 (two-hybrid fusion, full length) (S. cerevisiae) (UniProt P20448); experiment: two-hybrid; directed assay in strain AH109; growth on SD–Trp–Leu–His with 2 mM 3-AT, 30°C (Figure 2, middle panel)
[9] = biological target: Dbp4 (two-hybrid fusion, full length) (S. cerevisiae) (UniProt P20448); experiment: two-hybrid; directed assay in strain AH109; growth on SD–Trp–Leu–His with 20 mM 3-AT, 30°C (Figure 2, lower panel)

B1: HA-tagged Bfr2 (3xHA, GAL1 promoter, double-tagged strain YSS7) (protein, UniProt Q06631 1-534)
chain: MEKSLADQISDIAIKPVNKDFDIEDEENASLFQHNEKNGESDLSDYGNSNTEETKKAHYLEVEKSKLRAEKGLELNDPKYTGVKGSRQALYEEVSENEDEEEEEEEEEEKEEDALSFRTDSEDEEVEIDEEESDADGGETEEAQQKRHALSKLIQQETKQAINKLSQSVQRDASKGYSILQQTKLFDNIIDLRIKLQKAVIAANKLPLTTESWEEAKMDDSEETKRLLKENEKLFNNLFNRLINFRIKFQLGDHITQNEEVAKHKLSKKRSLKELYQETNSLDSELKEYRTAVLNKWSTKVSSASGNAALSSNKFKAINLPADVQVENQLSDMSRLMKRTKLNRRNITPLYFQKDCANGRLPELISPVVKDSVDDNENSDDGLDIPKNYDPRRKDNNAIDITENPYVFDDEDFYRVLLNDLIDKKISNAHNSESAAITITSTNARSNNKLKKNIDTKASKGRKLNYSVQDPIANYEAPITSGYKWSDDQIDEFFAGLLGQRVNFNENEDEEQHARIENDEELEAVKNDDIQIFG
For B1, the binding [1] was “binds”, the binding [2] was “binds” and the binding [3] was “binds”. The binding [4] was “binds”.

B2: Mpp10 (endogenous) (protein, UniProt P47083 1-593)
chain: MSELFGVLKSNAGRIILKDPSATSKDVKAYIDSVINTCKNGSITKKAELDEITVDGLDANQVWWQVKLVLDSIDGDLIQGIQELKDVVTPSHNLSDGSTLNSSSGEESELEEAESVFKEKQMLSADVSEIEEQSNDSLSENDEEPSMDDEKTSAEAAREEFAEEKRISSGQDERHSSPDPYGINDKFFDLEKFNRDTLAAEDSNEASEGSEDEDIDYFQDMPSDDEEEEAIYYEDFFDKPTKEPVKKHSDVKDPKEDEELDEEEHDSAMDKVKLDLFADEEDEPNAEGVGEASDKNLSSFEKQQIEIRKQIEQLENEAVAEKKWSLKGEVKAKDRPEDALLTEELEFDRTAKPVPVITSEVTESLEDMIRRRIQDSNFDDLQRRTLLDITRKSQRPQFELSDVKSSKSLAEIYEDDYTRAEDESALSEELQKAHSEISELYANLVYKLDVLSSVHFVPKPASTSLEIRVETPTISMEDAQPLYMSNASSLAPQEIYNVGKAEKDGEIRLKNGVAMSKEELTREDKNRLRRALKRKRSKANLPNVNKRSKRNDVVDTLSKAKNITVINQKGEKKDVSGKTKKSRSGPDSTNIKL
In the case of B2, the binding [5] is reported as “binds”.

B3: Bfr2 (two-hybrid prey, full length) (protein, UniProt Q06631 1-534)
chain: MEKSLADQISDIAIKPVNKDFDIEDEENASLFQHNEKNGESDLSDYGNSNTEETKKAHYLEVEKSKLRAEKGLELNDPKYTGVKGSRQALYEEVSENEDEEEEEEEEEEKEEDALSFRTDSEDEEVEIDEEESDADGGETEEAQQKRHALSKLIQQETKQAINKLSQSVQRDASKGYSILQQTKLFDNIIDLRIKLQKAVIAANKLPLTTESWEEAKMDDSEETKRLLKENEKLFNNLFNRLINFRIKFQLGDHITQNEEVAKHKLSKKRSLKELYQETNSLDSELKEYRTAVLNKWSTKVSSASGNAALSSNKFKAINLPADVQVENQLSDMSRLMKRTKLNRRNITPLYFQKDCANGRLPELISPVVKDSVDDNENSDDGLDIPKNYDPRRKDNNAIDITENPYVFDDEDFYRVLLNDLIDKKISNAHNSESAAITITSTNARSNNKLKKNIDTKASKGRKLNYSVQDPIANYEAPITSGYKWSDDQIDEFFAGLLGQRVNFNENEDEEQHARIENDEELEAVKNDDIQIFG
In the case of B3, the binding [6] is reported as “binds” and the binding [7] is reported as “binds”.

B4: Nop6 (two-hybrid prey) (protein, UniProt Q07623 1-225)
chain: MGSEEDKKLTKKQLKAQQFRKSKEEKDQEKDVKKEQAPEGKRPNSAAGNDGEEPVKKKRKTRRGRGGKGKNGKKGNRFIVFVGSLPRDITAVELQNHFKNSSPDQIRLRADKGIAFLEFDADKDRTGIQRRMDIALLQHGTLLKEKKINVELTVGGGGNSQERLEKLKNKNIKLDEERKERLTKMINDGNQKKIAKTTATAAQTSGTDNKPVPAGIHPDRAKLLK
B4 was tested, and the binding [8] was “no binding” and the binding [9] was “no binding”.
